According to PubChem BioAssay AID493005 (National Center for Advancing Translational Sciences (NCATS), 2010):
Fewer than 10 of roughly 340,000 compounds were called active. Inconclusive means that the source gave no clear call. Such entries were picked first, then a sample of the others. Calls come from the whole dose curve; as a rule, active = well fitted inhibition curve with a large enough effect in the main read-out, with a control signal flat (not every such curve was filed as active); inconclusive = small, poorly fitted or top-dose-only effect, or effect the other way, or a change in a side signal; inactive = no such curve, though single readings can be large or run the other way. A potency beside an inconclusive call is a rough fit, not a confirmed value. “Side channel” marks fits to a control or component signal instead of the main read-out.
Potency is the fitted concentration of half-maximal effect; tags give direction and shape of the fitted curve or compound fluorescence and quenching.

What follows are compounds tested against Tumor susceptibility gene 101 protein (Homo sapiens) (UniProt Q99816) (assay: qHTS Assay for Iinhibitors of HIV-1 Budding by Blocking the Interaction of PTAP/TSG101). Settings: Fluorescence polarization, FITC-PTAP peptide / Tsg101 binding; series mostly up to 115 µM.
UniProt Q99816, sequence (Q99816 whole entry, looked up, the tested form may be a part): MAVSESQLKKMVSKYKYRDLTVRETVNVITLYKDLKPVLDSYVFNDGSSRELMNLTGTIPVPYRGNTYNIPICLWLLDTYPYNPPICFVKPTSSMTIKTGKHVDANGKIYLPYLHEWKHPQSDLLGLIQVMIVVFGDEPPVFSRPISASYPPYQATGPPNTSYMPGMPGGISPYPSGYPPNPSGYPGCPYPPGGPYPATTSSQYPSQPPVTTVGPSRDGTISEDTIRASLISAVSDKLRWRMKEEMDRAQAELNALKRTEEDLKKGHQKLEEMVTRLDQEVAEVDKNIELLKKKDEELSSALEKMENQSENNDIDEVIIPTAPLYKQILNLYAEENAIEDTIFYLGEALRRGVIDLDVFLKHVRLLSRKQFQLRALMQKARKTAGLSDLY
In short: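 FP read-out: FITC-PTAP peptide, 50 nM final, binding Tsg101 binding domain, 10 uM final; 20 min, r.t.; 10 mM HEPES pH 7.5, 0.15 M NaCl, 0.01% Tween 20, 3 mM EDTA, 0.1 mM TCEP.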
`COc1cc2c(cc1OC)CN(Cc1ccc(F)cc1)CC2` was tested, and the Potency was inconclusive: 89.1 µM [fluorescent, side channel, single point]. With `Cc1cc[n+](-c2[nH]c(=O)sc2/C=N/NC([S-])=Nc2ccccc2)cc1` the Potency was inconclusive: 79.4 µM [fluorescent, side channel, partial curve, poor fit]. For `CCOc1c2ccc(C(=O)NCc3ccc4c(c3)OCO4)cc2nn1CC`, the Potency was “inactive”. With `Cc1nn(-c2ccccc2)c(N2CCCC2)c1/C=C1\N=C(c2ccc(OC(C)C)cc2)OC1=O` the Potency was inconclusive: 56.2 µM [fluorescent, side channel, partial curve, poor fit]. With `Oc1c(C=Nc2ccccc2Cl)[nH]c2ccccc12` the Potency was inconclusive: 20 µM [fluorescent, side channel, partial curve, poor fit]. `CCOC(=O)N1CCN(Cc2nc3c(c(=O)[nH]c(=O)n3C)n2Cc2cc(C)ccc2C)CC1` was tested, and the Potency was inconclusive: 89.1 µM [quencher, side channel, partial curve, poor fit]. `Cc1nn(C)cc1N1C(=O)c2cccc3c(N)ccc(c23)C1=O` was tested, and the Potency was inconclusive: 50.1 µM [fluorescent, side channel, partial curve]. In the case of `CCN(CC)CCCNc1ccc2ncn3c4ccc(O)cc4c(=O)c1c23`, the Potency is reported as inconclusive: 50.1 µM [fluorescent, side channel, partial curve, poor fit]. With `NNC(=O)COc1ccc(-c2n[nH]c(C(F)(F)F)c2-c2ccc(Br)cc2)c(O)c1` the Potency was “inactive”. In the case of `CC(CCC(C)C(C)(C)C)[C@@H]1CC[C@H]2C3C[C@H](OS(O)(=S)=S)[C@H]4C[C@H](OS(O)(=S)=S)[C@@H](OS(O)(=S)=S)C[C@]4(C)[C@H]3CC[C@]12C` (stereo not given in full) (tested in a mixture with another compound), the Potency is reported as inconclusive: 79.4 µM [falling, partial curve]. For `CCOc1ccc(-c2ccc(SCC(=O)Nc3nnc(CC)s3)nn2)cc1`, the Potency was “inactive”. `CCN(CC)c1ccc(/C=C/c2cccc[n+]2C)c(OC)c1` was tested, and the Potency was inconclusive: 56.2 µM [fluorescent, partial curve, poor fit]. With `CCCCCCN1C=CC(=C/C=C(\C#N)C(=O)OCC)C=C1` the Potency was inconclusive: 35.5 µM [activator, partial curve, poor fit]. With `COc1ccc2c(C#N)c3ccccn3c2c1` the Potency was inconclusive: 79.4 µM [fluorescent, side channel, partial curve]. With `CC1CCCCN1C(=O)CN1CCC(c2nc3ccc(Cl)cc3[nH]2)CC1` (stereo not given) the Potency was “inactive”.
